The structures appear in SMILES notation. In all, about 310,000 compounds went through this assay and about 2,200 (0.71%) showed an effect of 50% or more. The effect is printed as a negative number. Some of the results follow.

human ether-à-go-go-related gene (hERG) potassium channel, sequence (Q12809 whole entry, looked up): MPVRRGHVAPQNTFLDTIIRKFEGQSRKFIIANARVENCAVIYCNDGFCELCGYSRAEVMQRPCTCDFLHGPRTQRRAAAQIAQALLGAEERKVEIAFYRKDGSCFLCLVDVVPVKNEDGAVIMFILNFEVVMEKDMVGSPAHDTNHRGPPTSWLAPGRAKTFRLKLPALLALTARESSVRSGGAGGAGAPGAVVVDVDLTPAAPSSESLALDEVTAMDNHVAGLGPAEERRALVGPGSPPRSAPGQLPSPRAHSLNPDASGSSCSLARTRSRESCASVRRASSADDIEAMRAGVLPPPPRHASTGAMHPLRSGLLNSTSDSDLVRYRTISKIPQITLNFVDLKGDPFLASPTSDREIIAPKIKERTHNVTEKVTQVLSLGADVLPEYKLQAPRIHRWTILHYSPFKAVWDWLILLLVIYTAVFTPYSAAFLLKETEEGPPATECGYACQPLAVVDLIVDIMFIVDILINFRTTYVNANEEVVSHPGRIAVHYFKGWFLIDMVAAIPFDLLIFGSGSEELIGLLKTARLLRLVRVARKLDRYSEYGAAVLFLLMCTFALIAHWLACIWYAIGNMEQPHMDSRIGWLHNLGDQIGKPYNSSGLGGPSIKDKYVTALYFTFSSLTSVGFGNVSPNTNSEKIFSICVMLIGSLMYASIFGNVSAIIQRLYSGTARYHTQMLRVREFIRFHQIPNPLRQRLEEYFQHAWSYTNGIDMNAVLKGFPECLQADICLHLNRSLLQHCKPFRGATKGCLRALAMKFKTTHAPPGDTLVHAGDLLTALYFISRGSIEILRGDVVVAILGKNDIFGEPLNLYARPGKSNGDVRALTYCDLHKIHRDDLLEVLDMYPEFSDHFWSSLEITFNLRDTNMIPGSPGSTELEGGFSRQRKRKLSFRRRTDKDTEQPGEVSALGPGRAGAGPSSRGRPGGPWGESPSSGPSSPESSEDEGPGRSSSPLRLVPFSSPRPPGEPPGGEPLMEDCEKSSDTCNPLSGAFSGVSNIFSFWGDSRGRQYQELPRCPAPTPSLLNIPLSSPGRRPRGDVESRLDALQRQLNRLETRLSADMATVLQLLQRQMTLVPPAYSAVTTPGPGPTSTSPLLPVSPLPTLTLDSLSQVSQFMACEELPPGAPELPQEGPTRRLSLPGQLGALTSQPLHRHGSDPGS

The test concerns the target human ether-à-go-go-related gene (hERG) potassium channel (human, UniProt Q12809). In words: primary screen, population patch clamp on CHO cells stably expressing hERG.
For the compound `Cc1ccc(OCC(=O)Nc2ccc([N+](=O)[O-])cn2)cc1C`, the “hERG current change (%, negative = inhibition) at 1uM” value was 9.93%. In the case of `CCCCn1c(=O)nc2n(-c3ccccc3C)c3ccccc3cc-2c1=O` it was 4.79%; in that of `O=C(CCc1ccccc1)N1CCCC(Nc2ccc(F)cc2)C1` (stereo not drawn), 1.88%. As for `CCOCCCNC(=O)Cn1nc(-c2ccccc2)ccc1=O`, the “hERG current change (%, negative = inhibition) at 1uM” value came to 6.81%. Turning to `O=C(CCc1nnc(CCCc2ccccc2)o1)NCCCC1CCCC1`, the “hERG current change (%, negative = inhibition) at 1uM” value is reported as 6.26%. The same measure for `CC(=O)c1cccc(S(=O)(=O)N2CCC(n3nnc4cc(F)ccc43)CC2)c1`: -47.3%; for `CC(C)CN(C(=O)CN1C(=O)NC(c2ccccc2)(c2ccccc2)C1=O)C1CCS(=O)(=O)C1` (stereo not drawn): 4.8%.

Turning to `CN(CCc1ccccn1)C(=S)NC(=O)c1ccco1`, the “hERG current change (%, negative = inhibition) at 1uM” value is 15.5%. As to `CCc1nnc(NC(=O)CCC(=O)NC2CCCCCCC2)s1`, the “hERG current change (%, negative = inhibition) at 1uM” value is 17.4%. In the case of `O=C1c2ccccc2NC(c2ccc(-c3cccc(Cl)c3)o2)N1O` (stereo not drawn) it was -2.04%. With `O=C(CN1CCCCCC1)NCCN1C(=O)S/C(=C\c2ccccc2Cl)C1=O`, the “hERG current change (%, negative = inhibition) at 1uM” value is 4.16%. Consider `CC(C)N1CC(C(=O)Nc2ccc(F)c(Cl)c2)CC1=O` (stereo not drawn), for which the “hERG current change (%, negative = inhibition) at 1uM” value was determined as 15.3%.

`CS(=O)(=O)c1ccc(NS(=O)(=O)c2ccc(Cl)c(C(=O)NCc3ccco3)c2)cc1`: the “hERG current change (%, negative = inhibition) at 1uM” value was 12.1%. The same measure for `COc1ccccc1Nc1nc(N)nc(CSc2nccn2C)n1`: 8.83%; for `COc1ccc(C(C(=O)Nc2ccc(C(C)C)cc2)N(Cc2ccco2)C(=O)CC2NC(=O)NC2=O)cc1` (stereo not drawn): 1.33%; for `O=C(CSc1ccc(F)cc1)N1CCN(S(=O)(=O)c2ccccc2)CC1`: 6.07%.

For `Clc1cccc(CN2CCN(c3ncccn3)CC2)c1Cl`, the “hERG current change (%, negative = inhibition) at 1uM” value was determined as 11.5%.

In the case of `S=c1[nH]nc(-c2ccncc2)n1Cc1ccccc1`, the “hERG current change (%, negative = inhibition) at 1uM” value is 9.32%. On to `O=c1cccc2c1c1cc[nH]c3ccc(=O)n2c31`, for which the “hERG current change (%, negative = inhibition) at 1uM” value was 16.7%. For `COc1cc(NC(=S)NCCN2CCOCC2)cc(OC)c1OC`, the “hERG current change (%, negative = inhibition) at 1uM” value was 14.7%. The same measure for `CCOP(=O)(c1ccc(N(C)C)cc1)C(O)c1ccncc1` (stereo not drawn): 8.47%; for `COc1ccccc1OCC(=O)N/N=C1\CCc2ccccc21`: 0.112%. On to `COc1ccccc1C(=O)NNC(=O)c1ccc(NS(=O)(=O)c2cccs2)cc1`, for which the “hERG current change (%, negative = inhibition) at 1uM” value was determined as 11.2%. In the case of `Cc1cccc(C)c1NC(=O)CNCC(=O)Nc1c(C)cccc1C.Cl` it was 13.5%; in that of `NC(=O)c1cc2ccccc2oc1=NCc1ccccc1`, 7.25%. For the compound `O=C(NCc1ccccc1)NC1(C(=O)N2CCCC2)CCCCC1`, the “hERG current change (%, negative = inhibition) at 1uM” value is on record as -0.637%. In the case of `O=C(CN1CCC(C(=O)c2cccc(Cl)c2)CC1)Nc1ccc(C(=O)O)cc1` it was 15.4%; in that of `CC(C)C1N(c2ccccc2)C(N)=C(C#N)C1(C#N)C#N` (stereo not drawn), 10.9%; in that of `O=[N+]([O-])c1ccc2nc(-c3ccccc3[N+](=O)[O-])[nH]c2c1`, 23.6%. For the compound `CCn1nc(C(=O)Nc2ccccc2C)c(Cl)c1Cl`, the “hERG current change (%, negative = inhibition) at 1uM” value was determined as 16%. The same measure for `COc1ccc(C(=O)Nc2cc(C)on2)cc1[N+](=O)[O-]`: 11.7%; for `O=C(Cc1cccs1)N1CCN(c2ccccn2)CC1`: 2.15%. The same measure for `O=[N+]([O-])c1cccc(N(CC2CO2)S(=O)(=O)c2ccccc2)c1` (stereo not drawn): 9.68%; for `O=C(NCc1cccs1)c1cccc(N2CCCC2=O)c1`: 14%. The same measure for `NS(=O)(=O)c1ccc(-c2ccc(/C=C3\SC(=S)N(C4CCS(=O)(=O)C4)C3=O)o2)cc1` (stereo not drawn): 10.9%; for `COc1ccc(C)cc1NC(=O)CN1CCN(S(=O)(=O)c2ccc3ccccc3c2)CC1`: 11.9%; for `O=C(CSc1oc(-c2ccco2)nc1S(=O)(=O)c1ccc(Cl)cc1)NCC1CCCO1` (stereo not drawn): -2.02%.

On to `Cc1cccc(NC(=O)c2c(C)cc(=O)oc2C)n1`, for which the “hERG current change (%, negative = inhibition) at 1uM” value is 14.9%.

For `Nc1c(C(=O)c2ccccc2)sc2snc(SCC(=O)c3ccccc3)c12`, the “hERG current change (%, negative = inhibition) at 1uM” value turned out to be 14.8%. As for `CC(O)C[NH+]=c1cc(-c2ccccc2)oc2ccc(Cl)cc12.F[B-](F)(F)F` (stereo not drawn), the “hERG current change (%, negative = inhibition) at 1uM” value was -57%. In the case of `O=C(NC1CCCCC1)C1(c2ccccc2)CC1(Cl)Cl` (stereo not drawn) it was 7.38%; in that of `CC(=O)Nc1ccc(C2(O)COc3ccccc3O2)cc1` (stereo not drawn), 12.3%; in that of `COc1ccc(C2=NNC(=O)CC2)cc1`, 18.6%.

Turning to `COc1cccc(NC(=O)CSc2nnc(C)s2)c1`, the “hERG current change (%, negative = inhibition) at 1uM” value was determined as 9.39%.

On to `Cn1c(=O)c2c(nc(CN3CCOCC3)n2CC(=O)c2ccccc2)n(C)c1=O`, for which the “hERG current change (%, negative = inhibition) at 1uM” value was found to be 6.76%. In the case of `O=C(NCCOc1ccc(Cl)cc1)c1ccco1` it was 6.6%.

Take `CSCC[C@H](NC(=O)[C@H](Cc1ccccc1)n1c(=O)[nH]c2ccccc2c1=O)C(=O)N1CCC[C@@H]1C(=O)O`: the “hERG current change (%, negative = inhibition) at 1uM” value stood at 18.1%.

Turning to `CCOC(=O)c1ccc(Nc2c(CC)c(C)nc3ncnn23)cc1`, the “hERG current change (%, negative = inhibition) at 1uM” value is given as 3.85%.

As to `CCn1c(=O)n(CC(=O)NCc2ccco2)c(=O)c2ccccc21`, the “hERG current change (%, negative = inhibition) at 1uM” value stood at 13.1%. For `COc1ccc(CC(=O)NC(CC(=O)O)c2ccc(OC)cc2)cc1` (stereo not drawn), the “hERG current change (%, negative = inhibition) at 1uM” value stood at 4.84%. Turning to `CC(=O)c1ccc(NS(=O)(=O)c2ccc(CC(C)C)cc2)cc1`, the “hERG current change (%, negative = inhibition) at 1uM” value is given as 8.17%. For `CCn1c(=NC(=O)CSCC(=O)Nc2nccs2)sc2ccccc21`, the “hERG current change (%, negative = inhibition) at 1uM” value is given as 2.45%.

As for `O=C(O)CSc1nc2ccccc2n1-c1ccccc1`, the “hERG current change (%, negative = inhibition) at 1uM” value was found to be 12.2%.

Take `O=C(C1=C[C@H](c2ccc(C(F)(F)F)cc2)C[C@H](OCCCCO)O1)N1CCN(Cc2ccccc2)CC1`: the “hERG current change (%, negative = inhibition) at 1uM” value was 4.78%. In the case of `O=C(CSc1ccccc1)N1CCCC(N2CCN(c3cccc(Cl)c3)CC2)C1` (stereo not drawn) it was -17.6%; in that of `c1ccc2c(Nc3nncs3)c3ccccc3nc2c1`, 3.93%; in that of `CC(C)(C)NC(=O)c1cc(F)c(F)cc1Cl`, 15.3%. Take `FC(F)(F)c1ccc(CN2C[C@@H]3C(c4ccc(Cl)nc4)C4(c5cccnc5)CC3(C4)[C@H]2c2ccccc2)cc1` (stereo partly drawn): the “hERG current change (%, negative = inhibition) at 1uM” value was found to be 3.04%. In the case of `S=C1NCN(Cc2ccccc2)CN1C1CCCCC1`, the “hERG current change (%, negative = inhibition) at 1uM” value was 17.2%. For `COc1ccc2[nH]cc(C3N4CC5(C)CN3CC(C)(C4)C5=O)c2c1` (stereo not drawn), the “hERG current change (%, negative = inhibition) at 1uM” value amounted to 9.35%. In the case of `COc1ccc2c(-c3ccccc3)cc(SCC(=O)NC(N)=O)nc2c1` it was 13.2%; in that of `O=C(NNC(=O)C1CC1)Nc1ccc(Cl)cc1`, 8.77%.

`O=C(CSc1ccc(S(=O)(=O)N2CCOCC2)cn1)Nc1ccc(OC(F)F)cc1`: the “hERG current change (%, negative = inhibition) at 1uM” value is 5.49%.

Take `CCOCCOC(=O)C1=C(C)N(C)C(=O)NC1c1ccccc1F` (stereo not drawn): the “hERG current change (%, negative = inhibition) at 1uM” value was determined as 10.8%. `COc1ccc(CCNC(=S)N2CCN(S(=O)(=O)c3cccc(F)c3)CC2)cc1`: the “hERG current change (%, negative = inhibition) at 1uM” value was -0.622%. The same measure for `CCCN(c1nc(C)cc(OC)n1)S(=O)(=O)c1ccccc1`: 8.96%; for `COc1cccc(C(=O)N2CCN(S(=O)(=O)Cc3ccccc3)CC2)c1OC`: 6.09%. As to `O=c1nc(N/N=C/c2ccco2)cn[nH]1`, the “hERG current change (%, negative = inhibition) at 1uM” value is reported as 14.5%. Take `O=C(NC1CCCCC1)N(Cc1ccccc1)Cc1ccco1`: the “hERG current change (%, negative = inhibition) at 1uM” value is reported as -0.633%. As to `COC(=O)c1nn(-c2ccc(Cl)cc2)c(=O)cc1Sc1ccccn1`, the “hERG current change (%, negative = inhibition) at 1uM” value is on record as -5.93%.

As to `CCOC(=O)c1c(N2C(=O)Nc3ccccc3N2O)n[nH]c1-c1cccc(Cl)c1`, the “hERG current change (%, negative = inhibition) at 1uM” value is recorded as 4.27%.

For `Cc1cc(C)cc(N(CC(=O)Nc2ccc(C)cc2Cl)S(=O)(=O)c2c(C)[nH]c(=O)[nH]c2=O)c1`, the “hERG current change (%, negative = inhibition) at 1uM” value is 18.1%. The same measure for `Cc1ccc2c(c1)N(CCCC(=O)NCCC1=CCCCC1)C(=O)CO2`: 7.55%; for `CCCCc1nc(SCC(=O)N2CCCCC2)c2c(=O)n(C)c(=O)n(C)c2n1`: 8.92%.

As to `Cc1ccc(NC(=O)c2nc[nH]c2C(=O)N2CCC(C)CC2)cc1`, the “hERG current change (%, negative = inhibition) at 1uM” value was 11.3%. In the case of `Cn1nc(-c2ccc(OCC(=O)Nc3cccnc3)cc2)c2ccccc2c1=O` it was -0.709%.

As for `c1ccc2sc(Cc3nnc4n3CCCCC4)nc2c1`, the “hERG current change (%, negative = inhibition) at 1uM” value is on record as 1.69%. In the case of `COCc1[nH]nc2c1C1(C(=O)Nc3ccc(F)cc31)C(C#N)=C(N)O2` (stereo not drawn) it was -0.547%; in that of `CC1(c2nnc(Cc3ccccc3)o2)CC(c2cccc(Cl)c2)=NO1` (stereo not drawn), 4.84%.

Consider `CCc1cccc2sc(NC(=O)C3CC3)nc12`, for which the “hERG current change (%, negative = inhibition) at 1uM” value was found to be 1.21%. For the compound `COc1ccc(C(=O)Nc2ccc(S(=O)(=O)N3CCCCC3)cc2)cc1`, the “hERG current change (%, negative = inhibition) at 1uM” value is reported as 6.08%. The same measure for `CC(C)CC(=O)Nc1ccc(C(=O)CN2CCC(C)CC2)cc1`: 5.4%; for `COc1ccc2nc(NC(=O)c3ccccc3O)sc2c1`: 16.6%. Consider `O=c1c(O)c(-c2cc(O)c(O)c(O)c2)oc2cc(O)cc(O)c12`, for which the “hERG current change (%, negative = inhibition) at 1uM” value is given as 14.6%. Consider `O=C(O)CCC(=O)NNC(=O)CCC(=O)NCc1ccccc1`, for which the “hERG current change (%, negative = inhibition) at 1uM” value is 12.5%. The same measure for `CCCCCCNC(=O)CNC(=S)N(Cc1cccs1)C1CCCCC1`: 14.6%. In the case of `O=S(=O)(Nc1ccccc1F)c1ccc(Cl)nc1`, the “hERG current change (%, negative = inhibition) at 1uM” value is 3.81%. Regarding `Cc1ccc(C)c(NC(=O)c2sc(Cl)nc2-c2ccccc2)c1`, the “hERG current change (%, negative = inhibition) at 1uM” value is reported as 10.5%. In the case of `O=C(Nc1ccc(F)c(F)c1)NC1CCCCC1` it was 10.4%; in that of `CC(C)c1ccc(N2C(=O)C(Cl)=C(N3CCOCC3)C2=O)cc1`, 14.8%.

The record behind these values is article PMC4336329 (PLoS ONE, 2015).
